The record followed here is the BET-seq Pho4 binding data (Le et al. 2018).

This is one part of the list. The energies were worked out here from pooled read counts, against the library average; single values are noisy.

This test has as its target T1, Pho4 (S. cerevisiae) (UniProt P07270).
T1 sequence: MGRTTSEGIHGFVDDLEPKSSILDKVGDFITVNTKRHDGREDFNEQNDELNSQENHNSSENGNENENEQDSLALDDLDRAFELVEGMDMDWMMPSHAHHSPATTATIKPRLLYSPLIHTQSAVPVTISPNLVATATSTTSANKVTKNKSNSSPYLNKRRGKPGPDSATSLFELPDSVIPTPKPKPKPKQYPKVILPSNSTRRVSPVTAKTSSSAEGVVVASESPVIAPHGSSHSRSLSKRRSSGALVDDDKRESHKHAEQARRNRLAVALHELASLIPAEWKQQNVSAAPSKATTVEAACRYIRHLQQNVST
Kind of test: relative binding free energy (BET-seq); higher = weaker binding. The settings on record: reference: library average.
As for GTTAGCACGTGTCGTT, the “relative binding free energy” value was 0.12 kcal/mol.
Take GGTAACACGTGGGCTA: the “relative binding free energy” value is 0.02 kcal/mol.
On to GTGTGCACGTGGGATC, for which the “relative binding free energy” value was -0.13 kcal/mol.
Consider GAAGTCACGTGAATTT, for which the “relative binding free energy” value is 0.21 kcal/mol.
AAGCGCACGTGTAGGG: the “relative binding free energy” value is -0.16 kcal/mol.
Consider AGATTCACGTGTACGG, for which the “relative binding free energy” value amounted to 0.15 kcal/mol.
Consider AGATTCACGTGGTTAA, for which the “relative binding free energy” value worked out at 0.23 kcal/mol.
In the case of TTTAACACGTGATATG, the “relative binding free energy” value worked out at 0.21 kcal/mol.
The result for AGATACACGTGAGGTG reads 0.21 kcal/mol.
Regarding GTTGACACGTGTGAAG, the “relative binding free energy” value was 0.12 kcal/mol.
The result for TGATACACGTGTTTCG reads 0.04 kcal/mol; that for GGTTGCACGTGATGAG, 0.16 kcal/mol; that for AATGTCACGTGAGCAT, 0.31 kcal/mol.
The result for GTAAACACGTGGTGTA reads -0.01 kcal/mol.
Regarding TCGTGCACGTGTTATG, the “relative binding free energy” value was -0.03 kcal/mol.
In the case of GTGAGCACGTGAAGGA, the “relative binding free energy” value is 0.12 kcal/mol.
With TTCTACACGTGAATGT, the “relative binding free energy” value came out at 0.27 kcal/mol.
Consider TTAAACACGTGTTGTG, for which the “relative binding free energy” value was -0.03 kcal/mol.
ATTGTCACGTGCAGGT: the “relative binding free energy” value stood at 0.14 kcal/mol.
With AAGGACACGTGCAGGT, the “relative binding free energy” value is -0.02 kcal/mol.
In the case of GGTGTCACGTGGTCGC, the “relative binding free energy” value is 0.12 kcal/mol.
As to ATGAGCACGTGACGGG, the “relative binding free energy” value was 0.08 kcal/mol.
For the sequence ATTCGCACGTGGGTGC, the “relative binding free energy” value is -0.25 kcal/mol.
Consider TGACTCACGTGTGGGT, for which the “relative binding free energy” value was 0.18 kcal/mol.
As for TGGGGCACGTGGCTGG, the “relative binding free energy” value is -0.14 kcal/mol.
For the sequence TAGGGCACGTGGGCCT, the “relative binding free energy” value was -0.33 kcal/mol.
For the sequence TTACTCACGTGAGAGT, the “relative binding free energy” value is 0.39 kcal/mol.
With ATCGTCACGTGGTTAA, the “relative binding free energy” value was 0.16 kcal/mol.
Consider TATCACACGTGGGGGG, for which the “relative binding free energy” value was 0 kcal/mol.
As to CGAGTCACGTGCGTGT, the “relative binding free energy” value is -0.09 kcal/mol.
The value for TCGGTCACGTGTAAGT was 0.2 kcal/mol; that for ATCCTCACGTGGTGTT was 0.06 kcal/mol.
In the case of CATTCCACGTGTGGTT, the “relative binding free energy” value amounted to 0.11 kcal/mol.
Turning to GTGGACACGTGTAGGA, the “relative binding free energy” value stood at 0.11 kcal/mol.
For TGTCACACGTGTATGG, the “relative binding free energy” value stood at 0.03 kcal/mol.
Turning to AGTGTCACGTGTCAGG, the “relative binding free energy” value amounted to 0.09 kcal/mol.
With CGTGACACGTGGAAGT, the “relative binding free energy” value is 0.07 kcal/mol.
The value for ATAGTCACGTGTAGTG was 0.06 kcal/mol.
In the case of ATGTGCACGTGTCGTT, the “relative binding free energy” value is -0.02 kcal/mol.
Turning to AGGGTCACGTGGGTAT, the “relative binding free energy” value came to 0 kcal/mol.
The result for CGTTGCACGTGATAGG reads 0.01 kcal/mol; that for TTGTGCACGTGGCTAC, 0.05 kcal/mol.
As for GTGATCACGTGTGAGG, the “relative binding free energy” value stood at 0.15 kcal/mol.
As for TGTCGCACGTGTTGGG, the “relative binding free energy” value stood at 0.01 kcal/mol.
Take TTTCGCACGTGCGTTA: the “relative binding free energy” value was -0.11 kcal/mol.
On to TGGTCCACGTGACCGG, for which the “relative binding free energy” value was 0.31 kcal/mol.
Consider TCTTGCACGTGTGGAG, for which the “relative binding free energy” value worked out at 0.2 kcal/mol.
The value for TGTATCACGTGGCATA was -0.01 kcal/mol; that for TTGCGCACGTGCGTTA was -0.01 kcal/mol; that for TGGCGCACGTGATGTG was 0.11 kcal/mol.
Consider ATTTTCACGTGTACTT, for which the “relative binding free energy” value came to 0.22 kcal/mol.
The result for CTGAACACGTGGGTTG reads -0.08 kcal/mol.
In the case of AGGTGCACGTGGTGAT, the “relative binding free energy” value was -0.05 kcal/mol.
With CCTGACACGTGGGGTT, the “relative binding free energy” value was -0.08 kcal/mol.
Regarding TCTGGCACGTGTTAAG, the “relative binding free energy” value was -0.01 kcal/mol.
In the case of TCGGTCACGTGGTAAG, the “relative binding free energy” value was -0.03 kcal/mol.
With ATAGTCACGTGAGGTT, the “relative binding free energy” value worked out at 0.3 kcal/mol.
For the sequence AGGCTCACGTGAAAGT, the “relative binding free energy” value worked out at 0.5 kcal/mol.
On to ACTTGCACGTGTGTTG, for which the “relative binding free energy” value worked out at 0.01 kcal/mol.
As to CTGGTCACGTGGTTGT, the “relative binding free energy” value worked out at 0.1 kcal/mol.
In the case of TTTTGCACGTGTGAGT, the “relative binding free energy” value was found to be 0.09 kcal/mol.
For the sequence TGCTACACGTGAGTGA, the “relative binding free energy” value came out at 0.43 kcal/mol.
In the case of TAGGGCACGTGTGTAG, the “relative binding free energy” value was -0.13 kcal/mol.
The result for TGCGACACGTGAGGTT reads 0.37 kcal/mol.
For the sequence TGTGACACGTGAAGCG, the “relative binding free energy” value came out at 0.22 kcal/mol.
GGGAGCACGTGTGGTA: the “relative binding free energy” value turned out to be 0.01 kcal/mol.
The result for CACGTCACGTGTGGGT reads 0.17 kcal/mol; that for GTGGACACGTGGAGTG, 0.11 kcal/mol; that for TGGCGCACGTGTGTGA, -0.14 kcal/mol.
For the sequence ATGTTCACGTGTGGTT, the “relative binding free energy” value was determined as 0.35 kcal/mol.
Consider TGTGGCACGTGCAAGG, for which the “relative binding free energy” value was -0.11 kcal/mol.
With TGTCTCACGTGTGTTG, the “relative binding free energy” value amounted to 0.18 kcal/mol.
CGTAGCACGTGTTATG: the “relative binding free energy” value is -0.07 kcal/mol.
As for TATTTCACGTGGAGAT, the “relative binding free energy” value amounted to 0.24 kcal/mol.
Take TGGTTCACGTGGCAAG: the “relative binding free energy” value amounted to 0.29 kcal/mol.
Regarding TAGTACACGTGCTGGG, the “relative binding free energy” value was -0.02 kcal/mol.
Turning to GGGTGCACGTGTCTTG, the “relative binding free energy” value was 0.08 kcal/mol.
With AGGTTCACGTGCGTGC, the “relative binding free energy” value turned out to be 0.2 kcal/mol.
With AGTCTCACGTGTGGAG, the “relative binding free energy” value stood at 0.11 kcal/mol.
As for CGTTTCACGTGTTTAG, the “relative binding free energy” value stood at 0.22 kcal/mol.
For GGGATCACGTGGGATA, the “relative binding free energy” value amounted to 0.1 kcal/mol.
As to TGCTTCACGTGTGGCT, the “relative binding free energy” value turned out to be 0.14 kcal/mol.
In the case of GAAGGCACGTGAGTTG, the “relative binding free energy” value turned out to be 0.05 kcal/mol.
As to TGGTACACGTGGTTTC, the “relative binding free energy” value came out at 0.12 kcal/mol.
The result for CAAAGCACGTGGGTGT reads -0.28 kcal/mol; that for GGAGGCACGTGGCTGA, -0.2 kcal/mol; that for TCAGGCACGTGGTTAT, -0.22 kcal/mol.
On to GTGTTCACGTGATGGC, for which the “relative binding free energy” value was 0.23 kcal/mol.
With TGTGCCACGTGTAATG, the “relative binding free energy” value turned out to be 0.11 kcal/mol.
On to TTTTACACGTGTTCTT, for which the “relative binding free energy” value came to 0.13 kcal/mol.
In the case of TTCGACACGTGGGGCG, the “relative binding free energy” value was -0.24 kcal/mol.
As to TATCGCACGTGGGAAT, the “relative binding free energy” value is -0.15 kcal/mol.
Take CTTAGCACGTGGGTTT: the “relative binding free energy” value was -0.26 kcal/mol.
Turning to AAAAACACGTGGGTGG, the “relative binding free energy” value was -0.17 kcal/mol.
For the sequence AGGTTCACGTGCAATG, the “relative binding free energy” value was determined as 0.28 kcal/mol.
Turning to TTTTTCACGTGTAGCT, the “relative binding free energy” value was 0.23 kcal/mol.
Take TTATTCACGTGGAGAT: the “relative binding free energy” value amounted to 0.17 kcal/mol.
For the sequence GTGGTCACGTGTTGAC, the “relative binding free energy” value stood at 0.14 kcal/mol.
For the sequence GTGGTCACGTGGATGG, the “relative binding free energy” value turned out to be 0.11 kcal/mol.
As for TGAATCACGTGTCGTT, the “relative binding free energy” value was determined as 0.16 kcal/mol.
As to GTAGGCACGTGTGGTA, the “relative binding free energy” value was -0.04 kcal/mol.
Turning to TAGGTCACGTGGCTCG, the “relative binding free energy” value came to 0 kcal/mol.
Regarding TGTGTCACGTGGAGGT, the “relative binding free energy” value stood at 0.09 kcal/mol.
Regarding GGGCACACGTGTAATG, the “relative binding free energy” value was determined as 0.18 kcal/mol.
On to TGAATCACGTGAAGGT, for which the “relative binding free energy” value turned out to be 0.37 kcal/mol.
Take GGTCACACGTGTGTTG: the “relative binding free energy” value was -0.03 kcal/mol.
With AGAAACACGTGGGGGT, the “relative binding free energy” value is -0.02 kcal/mol.
Turning to CATGACACGTGGGTGG, the “relative binding free energy” value was -0.12 kcal/mol.
In the case of GGATACACGTGCGTTG, the “relative binding free energy” value came to 0 kcal/mol.
The value for TCATGCACGTGGAGTT was -0.02 kcal/mol.
For the sequence GTAATCACGTGGTCGA, the “relative binding free energy” value was 0.13 kcal/mol.
For GGAACCACGTGGGGGG, the “relative binding free energy” value is -0.07 kcal/mol.
The value for TTCAGCACGTGAGGTG was 0.25 kcal/mol; that for GTTACCACGTGGTGGT was -0.01 kcal/mol.
In the case of TTTAACACGTGAGTAG, the “relative binding free energy” value worked out at 0.22 kcal/mol.
